# Test results as given in the supplement of paper PMC3334620.
# The full ranking holds about 33,000 sequences; the median of “E-score (-0.5 to 0.5)” is about -0.011, and the highest 2% start at about 0.28. This is one part of the list.
# Target: T1, Gcr1 (UniProt P07261)
# T1 sequence: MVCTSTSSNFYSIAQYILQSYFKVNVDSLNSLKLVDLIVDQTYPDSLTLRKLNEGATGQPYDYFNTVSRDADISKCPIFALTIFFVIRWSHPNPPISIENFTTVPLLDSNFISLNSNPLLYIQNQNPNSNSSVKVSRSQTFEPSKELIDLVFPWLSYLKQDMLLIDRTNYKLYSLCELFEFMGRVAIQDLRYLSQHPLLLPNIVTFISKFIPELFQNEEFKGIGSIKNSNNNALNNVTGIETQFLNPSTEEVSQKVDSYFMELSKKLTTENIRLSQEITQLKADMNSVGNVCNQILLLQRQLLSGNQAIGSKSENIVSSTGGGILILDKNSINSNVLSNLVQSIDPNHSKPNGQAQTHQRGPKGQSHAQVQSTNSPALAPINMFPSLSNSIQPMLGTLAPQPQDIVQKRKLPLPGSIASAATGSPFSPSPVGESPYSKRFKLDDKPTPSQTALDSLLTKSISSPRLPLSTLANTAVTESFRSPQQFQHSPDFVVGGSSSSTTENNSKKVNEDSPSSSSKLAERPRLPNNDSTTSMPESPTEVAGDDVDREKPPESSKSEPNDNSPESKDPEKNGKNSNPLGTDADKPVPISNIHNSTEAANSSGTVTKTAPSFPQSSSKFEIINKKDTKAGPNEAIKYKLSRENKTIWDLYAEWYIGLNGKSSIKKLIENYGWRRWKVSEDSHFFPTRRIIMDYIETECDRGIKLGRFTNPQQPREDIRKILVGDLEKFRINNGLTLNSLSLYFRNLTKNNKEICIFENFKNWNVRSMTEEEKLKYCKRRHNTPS
# Experiment: PBM E-score (8-mer binding enrichment) (E-score (-0.5 to 0.5)); higher = stronger / more preferred TF binding; most listed sequences are background and not binding sites
# Settings: protein concentration: 100 nM; construct: GST-full length
# How it was run: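 Each ungapped eight-base word and its reverse complement, pooled, received an E-score from the Universal PBM Analysis Suite. Underlying scans, normalised with masliner, recorded fluorescent anti-GST bound to GST-tagged yeast transcription factors. These were applied at about 100-200 nM to universal all-10-mer Agilent arrays double-stranded by primer extension.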
row,Sequence,PBM E-score
1,ACACTCAT,-0.0199
2,ACGAAGTC,0.107
3,ATCTTGGA,0.143
4,ACTCTAGA,-0.0599
5,ACTGAACG,-0.123
6,GTGACAGA,-0.116
7,ACGCTGGC,0.0265
8,AAGTACGC,-0.0784
9,ATTGTACA,-0.0854
10,TTATGCAA,-0.111
11,CTTGAGGC,-0.0269
12,AACAGTAC,-0.11
13,CCGACCCA,-0.0324
14,GACTGTGC,-0.256
15,CCCCTGCG,-0.167
16,CAAAGGCC,-0.305
17,ACGGGCCA,-0.0346
18,CGCCGGCA,0.159
19,ACTTGAGG,-0.228
20,GCTGCACA,0.0585
21,ACCTAACA,0.157
22,CAAGGACG,-0.0704
23,GAAACGAC,-0.0115
24,ACCCCGTA,-0.0035
25,AAAAAAAC,0.115

row,Sequence,PBM E-score
1,GAATAGCA,0.125
2,GTAGTTTA,0.103
3,CCTTTTTC,0.0572
4,CCTGTCGC,-0.0564
5,AGAATTCT,0.224
6,ATGTCTGG,0.0464
7,AGGGAATG,-0.212
8,AGACTTTA,-0.158
9,AGCACAGA,-0.0174
10,GAAATCTA,0.0966
11,AGACAGTG,0.00806
12,ACAGTACA,-0.125
13,AATTGTCC,0.0115
14,CCTGATTA,0.127
15,AGATCGGA,0.0505
16,CCGCACAC,-0.0537
17,CAAATCAA,-0.0296
18,CAAGTATG,0.038
19,TCGAGCGA,-0.176
20,ACACAAAG,-0.0888
21,AGCCTCCC,0.108
22,ATACACTA,0.0688
23,CCGACTGA,-0.0839
24,AATAGGGT,0.127
25,CCGACGCC,0.233

row,Sequence,PBM E-score
1,CACACTCA,-0.0795
2,CCCGGGCC,-0.197
3,ATGTGGCG,-0.0124
4,GTGTATAA,-0.0442
5,GCCCTCGC,-0.0477
6,ATAGTCAT,-0.09
7,AAAAGCCT,-0.229
8,CCCCCCCG,-0.219
9,ATTCGCGA,0.0371
10,AATCCTTA,0.0501
11,CCTTTAAC,0.147
12,AGCCTTTC,-0.18
13,GAAGTCAA,0.297
14,ATTCAACA,-0.0831
15,CAGATATA,-0.0372
16,CACGCTCC,-0.0164
17,CGAATCCG,0.119
18,ATGTCTGA,0.0619
19,CAGTGAAA,-0.00452
20,ACTGTTAC,0.00344
21,AAGCTCGA,0.0832
22,CGCATGTA,-0.278
23,CGTACAAG,0.11
24,CTAATTCA,0.178
25,AGTTATAA,0.139

row,Sequence,PBM E-score
1,ATGTCGTG,-0.0049
2,GGTTTGGA,0.115
3,CCATTTTC,0.176
4,AGTTATGC,-0.0314
5,ACCGCCTA,-0.0925
6,ACAGCACC,0.187
7,ACAGCCGG,0.117
8,ACCAAGCA,0.175
9,CATATTAA,0.134
10,CTCAAGGC,-0.0689
11,ATACACTC,-0.158
12,GACGCGGA,-0.0936
13,CAACGTCG,0.021
14,ATCCCATG,-0.0862
15,ATGTGCTC,-0.155
16,GTCCTCAA,-0.0769
17,AATTCTGA,0.113
18,CGGGTCCC,0.223
19,GTGAGGGA,-0.0881
20,TAAGCACA,-0.0341
21,AGGAGAAC,-0.0959
22,CGTTGTAC,-0.0675
23,ATGGAGTA,-0.0448
24,GCGTATAC,0.156
25,GGTCAGCA,-0.146

row,Sequence,PBM E-score
1,CCGCATAC,0.124
2,ATCCAGCA,0.235
3,AAGTACAC,0.0261
4,CTCGTCTA,0.0411
5,AACGGCTA,-0.0206
6,ATAGGCCC,-0.0888
7,AAGCAATA,0.0262
8,GTCCTCAC,-0.14
9,CGCTAGTC,-0.153
10,GGCAGAAA,-0.032
11,GACGAACA,-0.0927
12,ATTCAAGA,0.12
13,AGTTGGGG,-0.0265
14,AGAGAGCT,-0.208
15,CCAGGCCG,-0.117
16,CGCACATA,-0.264
17,CAAAAGGA,0.156
18,GGTCCTTA,0.0824
19,AGATTCCG,0.284
20,ACTGCTCA,-0.0624
21,CCCTCTTC,-0.0518
22,ATTCCCAA,0.162
23,GCGGGCCC,0.187
24,ATCCAAAT,0.224
25,TGACTCAA,-0.115

row,Sequence,PBM E-score
1,ATCGCATA,0.0722
2,GAAAACCA,0.084
3,ATGGGATA,0.166
4,GTTTTTCA,0.171
5,CTCCTTAC,-0.0603
6,AGCGTCCT,0.426
7,AGTTCCGC,-0.0461
8,ACGAGGAT,-0.0152
9,ACATTAAC,0.018
10,CCCCCGGG,-0.05
11,TCGTGACA,0.0544
12,AGAAGTAT,-0.0844
13,CGCGTAGA,0.0326
14,ACCGAAGG,-0.119
15,GAGGTGGA,-0.221
16,GCCGAGGA,-0.132
17,AGAAGGTC,-0.261
18,GGAGCAGA,-0.0656
19,ACGTGCCG,-0.0089
20,CAATAGAG,0.0491
21,CATACCTA,0.0799
22,AGCACGGG,-0.0631
23,AGATAGGC,-0.0803
24,TGGAGCCA,0.205
25,CCTCGTCG,-0.104

row,Sequence,PBM E-score
1,CAGGGGTC,0.0737
2,CGAGTCCG,-0.154
3,AAGACTGG,0.0254
4,CGACAGAG,-0.235
5,TACTAAGA,0.216
6,CTGGAAAA,-0.00671
7,ACCACAGC,-0.17
8,GGGTCCAC,-0.00435
9,AACTCGGC,0.0457
10,ACTGCAGA,-0.219
11,CTGCGGAC,0.00885
12,CTAGTTAA,0.119
13,AGAGCTCG,-0.195
14,GTCTCGGA,-0.0785
15,AGGCTTGC,-0.246
16,ATCGGTCC,-0.119
17,CCTGATAG,-0.233
18,ACACTTCA,-0.17
19,CCAGCATA,-0.0136
20,AGTCAAAA,-0.0258
21,CTTCAGGA,0.268
22,ATGATTCC,0.103
